B1: PhoQ; a variant is named by its letters at X, in order, P23837 (parent)
chain: MKKLLRLFFPLSLRVRFLLATAAVVLVLSLAYGMVALIGYSVSFDKTTFRLLRGESNLFYTLAKWENNKLHVELPENIDKQSPTMTLIYDENGQLLWAQRDVPWLMKMIQPDWLKSNGFHEIEADVNDTSLLLSGDHSIQQQLQEVREDDDDAEMTHSVAVNVYPATSRMPKLTIVVVDTIPVELKSSYMVWSWFIYVLSANLLLVIPLLWVAAWWSLRPIEALAKEVRELEEHNRELLNPATTRELTSLVRNLNRLLKSERERYDKYRTTLTDLTHSLKTPLXXLQXXLRSLRSEKMSVSDAEPVMLEQISRISQQIGYYLHRASMRGGTLLSRELHPVAPLLDNLTSALNKVYQRKGVNISLDISPEISFVGEQNDFVEVMGNVLDNACKYCLEFVEISARQTDEHLYIVVEDDGPGIPLSKREVIFDRGQRVDTLRPGQGVGLAVAREITEQYEGKIVAGESMLGGARMEVIFGRQHSAPKDE

The values that follow come from a collection of fitness landscapes (doi:10.1126/science.1257360).

Some of the results follow. Some results are limits rather than exact numbers.

The variants in the assay derive from B1. In words: enrichment ratio after two sorts for PhoP signalling (ratio (wild type AVST 3.29)); higher = more functional. Conditions: with PhoP (E. coli).
For the variant YADM, the enrichment ratio is ≤ 0.25.

Consider IIRY, for which the enrichment ratio was ≤ 0.25.

In the case of HFQS, the enrichment ratio is ≤ 0.25.

On to TFSE, for which the enrichment ratio is ≤ 0.25.

With FHSM, the enrichment ratio was ≤ 0.25.

Turning to WGIP, the enrichment ratio was ≤ 0.25.

For the variant PTFI, the enrichment ratio was ≤ 0.25.

On to WNWS, for which the enrichment ratio was ≤ 0.25.

With QKVS, the enrichment ratio was ≤ 0.25.

On to AYDM, for which the enrichment ratio was ≤ 0.25.

Turning to IHHE, the enrichment ratio is ≤ 0.25.

Take SIRV: the enrichment ratio is ≤ 0.25.

With GLYW, the enrichment ratio is ≤ 0.25.

Turning to HRMY, the enrichment ratio is ≤ 0.25.

On to KRRK, for which the enrichment ratio was ≤ 0.25.

Take SFLY: the enrichment ratio came to 0.911.

In the case of IHMY, the enrichment ratio is ≤ 0.25.

As to KCPF, the enrichment ratio was ≤ 0.25.

With VVLC, the enrichment ratio was ≤ 0.25.

With EAGQ, the enrichment ratio is ≤ 0.25.

IRLS: the enrichment ratio was ≤ 0.25.

As to TVLV, the enrichment ratio came to 0.789.

Turning to RQNF, the enrichment ratio was ≤ 0.25.

In the case of PVHR, the enrichment ratio was ≤ 0.25.

Take VCKS: the enrichment ratio is ≤ 0.25.

As for WTSI, the enrichment ratio was ≤ 0.25.

IAQY: the enrichment ratio was ≤ 0.25.

Consider YNKM, for which the enrichment ratio was ≤ 0.25.

As to GDMM, the enrichment ratio was ≤ 0.25.

For the variant QSRH, the enrichment ratio is ≤ 0.25.

EKSP: the enrichment ratio was ≤ 0.25.

As for KMHV, the enrichment ratio was ≤ 0.25.

With RYEI, the enrichment ratio was ≤ 0.25.

As for EYDN, the enrichment ratio was ≤ 0.25.

Consider RQYV, for which the enrichment ratio is ≤ 0.25.

In the case of RFKK, the enrichment ratio is ≤ 0.25.

LNTL: the enrichment ratio was ≤ 0.25.

SKNR: the enrichment ratio was ≤ 0.25.

Take MNWA: the enrichment ratio was ≤ 0.25.

For the variant NFQV, the enrichment ratio is ≤ 0.25.

For the variant SLDP, the enrichment ratio was ≤ 0.25.

Take HSIV: the enrichment ratio is ≤ 0.25.

WLVN: the enrichment ratio is ≤ 0.25.

VHMD: the enrichment ratio was ≤ 0.25.

ECPW: the enrichment ratio was ≤ 0.25.

As for RPPE, the enrichment ratio was ≤ 0.25.

Take ICWM: the enrichment ratio is ≤ 0.25.

Turning to GQCC, the enrichment ratio was ≤ 0.25.

As for RHLL, the enrichment ratio is ≤ 0.25.

As for DVCS, the enrichment ratio was ≤ 0.25.

Regarding IVLY, the enrichment ratio was ≤ 0.25.

Take NKSH: the enrichment ratio was ≤ 0.25.

Turning to VVWV, the enrichment ratio was ≤ 0.25.

For the variant LIHH, the enrichment ratio is ≤ 0.25.

As for YNPI, the enrichment ratio is ≤ 0.25.

Turning to RQKR, the enrichment ratio was ≤ 0.25.

For the variant INVR, the enrichment ratio is ≤ 0.25.

On to DGPL, for which the enrichment ratio is ≤ 0.25.

EYCI: the enrichment ratio is ≤ 0.25.

Consider YQNF, for which the enrichment ratio is ≤ 0.25.

Regarding FREG, the enrichment ratio is ≤ 0.25.

Consider KYYC, for which the enrichment ratio was ≤ 0.25.

As for SHCD, the enrichment ratio is ≤ 0.25.

Take AYCM: the enrichment ratio was 0.253.

Turning to IRMT, the enrichment ratio is ≤ 0.25.

Regarding IGNG, the enrichment ratio is ≤ 0.25.

Consider GIIP, for which the enrichment ratio was ≤ 0.25.

In the case of KHTA, the enrichment ratio is ≤ 0.25.

For NFWW, the enrichment ratio is ≤ 0.25.

For the variant GGTL, the enrichment ratio was 5.81.

Regarding SIDF, the enrichment ratio is ≤ 0.25.

FGHN: the enrichment ratio is ≤ 0.25.

Regarding MRDM, the enrichment ratio was ≤ 0.25.

As to VWRV, the enrichment ratio was ≤ 0.25.

Turning to GWCS, the enrichment ratio was ≤ 0.25.

Regarding EHIL, the enrichment ratio is ≤ 0.25.

As for DRQT, the enrichment ratio was ≤ 0.25.

YHII: the enrichment ratio is ≤ 0.25.

GLQA: the enrichment ratio is ≤ 0.25.

In the case of TFCK, the enrichment ratio is ≤ 0.25.

Regarding FSRV, the enrichment ratio is ≤ 0.25.

Turning to EILW, the enrichment ratio was ≤ 0.25.

Regarding WFLA, the enrichment ratio is ≤ 0.25.

Turning to ERRV, the enrichment ratio was ≤ 0.25.

As to ALLM, the enrichment ratio stood at 7.31.

Regarding VNRP, the enrichment ratio was ≤ 0.25.

As for QHPG, the enrichment ratio was ≤ 0.25.

In the case of MNQV, the enrichment ratio is ≤ 0.25.

For VVSI, the enrichment ratio was ≤ 0.25.

Regarding FRCE, the enrichment ratio is ≤ 0.25.

For WKWN, the enrichment ratio is ≤ 0.25.

With TMWW, the enrichment ratio is ≤ 0.25.

With RQCV, the enrichment ratio is ≤ 0.25.

In the case of WFIP, the enrichment ratio is ≤ 0.25.

In the case of VSVT, the enrichment ratio was 0.566.

Take PWIA: the enrichment ratio was ≤ 0.25.

On to DDRW, for which the enrichment ratio is ≤ 0.25.

In the case of ILLR, the enrichment ratio was 0.288.

With WDAS, the enrichment ratio is ≤ 0.25.

Consider GGCG, for which the enrichment ratio is ≤ 0.25.

Consider QEYR, for which the enrichment ratio was ≤ 0.25.

On to NFKE, for which the enrichment ratio was ≤ 0.25.

On to ACYH, for which the enrichment ratio is ≤ 0.25.

As for LAPP, the enrichment ratio was ≤ 0.25.

Turning to PRKV, the enrichment ratio is ≤ 0.25.

In the case of DGLR, the enrichment ratio was ≤ 0.25.

With GSFQ, the enrichment ratio was ≤ 0.25.

As for KYRQ, the enrichment ratio is ≤ 0.25.

In the case of ISDL, the enrichment ratio is ≤ 0.25.

In the case of TNYM, the enrichment ratio amounted to 1.85.

As to QEEK, the enrichment ratio is ≤ 0.25.

Regarding YDDK, the enrichment ratio was ≤ 0.25.

On to VIMW, for which the enrichment ratio was ≤ 0.25.

On to QNER, for which the enrichment ratio was ≤ 0.25.

As for VNHA, the enrichment ratio was ≤ 0.25.

In the case of NGST, the enrichment ratio is ≤ 0.25.

Take LVDY: the enrichment ratio is ≤ 0.25.

SRGQ: the enrichment ratio is ≤ 0.25.

Consider SEFV, for which the enrichment ratio stood at 11.8.

MAVI: the enrichment ratio was ≤ 0.25.

On to LCLF, for which the enrichment ratio was ≤ 0.25.

With YAWT, the enrichment ratio was ≤ 0.25.

Consider HLMI, for which the enrichment ratio is ≤ 0.25.

For QDAI, the enrichment ratio is ≤ 0.25.

On to NHLI, for which the enrichment ratio was ≤ 0.25.

In the case of QSLR, the enrichment ratio is ≤ 0.25.

On to LWTL, for which the enrichment ratio is ≤ 0.25.

On to PIVD, for which the enrichment ratio was ≤ 0.25.

MVYS: the enrichment ratio was ≤ 0.25.

NMKM: the enrichment ratio is ≤ 0.25.

For the variant KQSM, the enrichment ratio was ≤ 0.25.

For the variant PALC, the enrichment ratio is ≤ 0.25.

Turning to NDRC, the enrichment ratio is ≤ 0.25.

FLRL: the enrichment ratio was ≤ 0.25.

As for GFYT, the enrichment ratio is ≤ 0.25.

For the variant IIWE, the enrichment ratio was ≤ 0.25.

For WFHF, the enrichment ratio is ≤ 0.25.

GSIS: the enrichment ratio came out at 7.27.

Turning to MGDH, the enrichment ratio was ≤ 0.25.

Take YYDF: the enrichment ratio was ≤ 0.25.

Consider PTCK, for which the enrichment ratio is ≤ 0.25.

Consider NHEG, for which the enrichment ratio is ≤ 0.25.

Regarding YYEP, the enrichment ratio was ≤ 0.25.

Take MCPI: the enrichment ratio is ≤ 0.25.

For RCKI, the enrichment ratio was ≤ 0.25.

For the variant TNYY, the enrichment ratio is ≤ 0.25.

Take QGYP: the enrichment ratio was ≤ 0.25.

For the variant THYH, the enrichment ratio is ≤ 0.25.

For the variant GHIM, the enrichment ratio was ≤ 0.25.

With LMLG, the enrichment ratio is ≤ 0.25.

Turning to RRFE, the enrichment ratio is ≤ 0.25.

In the case of PSAT, the enrichment ratio was ≤ 0.25.

For the variant NAFW, the enrichment ratio was ≤ 0.25.
